# Experimental data as given in ChEMBL document CHEMBL4888484, “Replenishing the malaria drug discovery pipeline: Screening and hit evaluation of the MMV Hit Generation Library 1 (HGL1) against asexual blood stage Plasmodium falciparum ,using a nano luciferase reporter read-out” (2022).
# The campaign covered roughly 150,000 compounds. About 540 (0.36%) showed an effect of 50% or more. The list shows a part of the results.
# Test system: Plasmodium falciparum
# Assay: Primary screen in NF54 nanoGlo assay, in single point, at 2uM, 72h; a lower Z score goes with more inhibition
# Assay type: functional, Erythrocyte
# Conditions: timepoint 72 hour
Compound,% Inhibition,Z score
O=C(c1ccc2n[nH]c(=O)n2c1)N1CCOC[C@@H]1CC1CC1,9%,-1.43
CCC(=O)N1CCN(c2ccc(N3CCCC3)nn2)CC1,-17%,3.23
O=C(Cc1cccs1)N1CCN(c2cc(N3CCOCC3)ncn2)CC1,-13%,2.17
C[C@@H](c1nc2ccccc2o1)N1CCC2(CC1)OCC(=O)N2C,-4%,0.63
CCc1nc(CN2CCc3cc(OC)ccc3C2)n[nH]1,1%,-0.1
CC(C)N(Cc1ccccc1)c1ncc(C(=O)NCc2ccccc2F)c(N)n1,1%,-0.21
CNc1cc(C)nc(-c2ccc3[nH]ccc3c2)n1,-3%,0.38
Cc1nc(C(=O)N2CCOC[C@@H]2CC(=O)Nc2cccc(CO)c2C)cs1,1%,-0.1
COc1ccccc1N1CCN(C(=O)c2csc(-c3ccc(C)s3)n2)CC1,-12%,1.49
CC(C)c1ccc(NC2CCC2O)cc1 (configuration not stated),-2%,0.25
COC(=O)c1cc(S(=O)(=O)NCCc2csc(C)n2)cc(F)c1F,30%,-4.08
COC(=O)[C@@H](C)NC1CCCC(c2ncccc2C)C1 (some centres not stated),-22%,3.11
O=C(CCOc1cccc(Cl)c1Cl)Nc1nccs1,4%,-0.86
COc1ccc(C(=O)c2c(-c3ccc(Cl)cc3)c3c4n(c(COc5ccccc5F)nn24)CCCC3)c(OC)c1,-2%,0.45
CCCC[C@H](CC)C(=O)Nc1ccccc1C(C)C,-13%,1.42
Cc1ncc(CNC(=O)c2ncoc2C(F)(F)F)o1,10%,-1.27
COc1cc(C(=O)N2CC3(C/C=C/COc4ccccc4C(=O)NCCN(C)C3=O)C2)on1,0%,-0.03
CC(C)(C)CCN1CCN(CCO)CC1,-9%,0.94
CCC(CC)C(=O)N1C[C@H]2CCCC(=O)N(Cc3ccccc3)[C@H]2C1,29%,-3.3
CNC(=O)c1cccc(NCc2cnc3ccccn23)n1,-15%,1.26
COc1ccc(CNC(=O)c2ccc3c(c2)nc2n3CCCC2)c(OC)c1,0%,0.07
CC(C)(C)n1nnc(Cn2c(=O)c(Cl)cc3ccccc32)n1,-5%,1.07

Compound,% Inhibition,Z score
CC1CC(C)CN(c2nc(O)c3c(n2)NC(=O)CC3c2ccncc2)C1 (configuration not stated),-12%,1.84
CC[C@H]1CN(C)CCCN1C(=O)c1cc2c(cn1)OCCC2,-5%,1
CCC[C@H](NC(=O)C(C)(C)NC(C)=O)c1nccn1C,-21%,2.83
COc1cccc(S(=O)(=O)N2CC(c3ccccc3)C(c3ncon3)C2)c1 (configuration not stated),-9%,1.49
CCCCCc1ccc(C(=O)Nc2ccc3[nH]cc(CCN(C)C4CCCCC4)c3c2)cc1,28%,-2.7
CC1(C)C2OCCC2C1OC(=O)c1noc2c1CCCC2 (configuration not stated),-2%,0.26
Cc1ccc(CN(C(=O)COc2ccc(C(C)C)cc2)c2ccccn2)o1,-4%,0.59
CC1CN(C(=O)NC2CCCC2C)CC(C)O1 (configuration not stated),-7%,0.98
Nc1c2c(-c3cccc(Cl)c3)nc(NCc3ccccn3)nc2nn1-c1ccc(Cl)cc1,5%,-0.7
CN(C)c1nsc(NCC2(Cn3cccn3)CC2)n1,19%,-2.43
COc1ccc(C)c2sc(N(Cc3ccccn3)C(=O)C3CCCCC3)nc12,-15%,1.97
Cc1nc(-n2cnnc2)ccc1-c1ccc(C(N)=O)cc1,-8%,1.26
CC1=NN(c2ccc(C(=O)NC[C@H]3CN(CC(C)C)C(=O)CO3)cc2)C(=O)C1,-2%,0.24
O=C(CN1C(=O)NC2(CCCCCCC2)C1=O)NCc1ccc(Cl)cc1,0%,0.06
O=C(Cc1scnc1-c1cccs1)NCc1ccccc1F,-3%,0.36
CN(CC1CC1)S(=O)(=O)NCC1CCCCC1NS(C)(=O)=O (configuration not stated),-8%,1.27
O=C(CN1Cc2ccccc2O[C@H](c2ccsc2)C1)N1CCN(c2ncccn2)CC1,-1%,0.19
N#Cc1ccc(OC(=O)CCc2ccc(F)cc2)cc1,-4%,0.52
COc1ccc(OC)c(-n2cc(C(=O)Nc3ccc(OC)nc3)c3ccccc3c2=O)c1,-6%,0.89
O=C1Nc2ccccc2CC[C@@H]1N1CCOCC2(CC2)C1,-9%,1.56
Cc1ccc(C(=O)N2CC[C@H](Oc3cc(N(C)C)ncn3)C2)s1,-17%,2.17
O=S1(=O)CC[C@H](CN2CCCC3(CCCCC3)CC2)C1,-4%,0.73

Compound,% Inhibition,Z score
COc1ccc2[nH]c(CN(C)Cc3nncn3C(C)C)c(C)c2c1,-19%,2.07
CC(C)(C)S(=O)(=O)[C@H]1CCN(C(=O)CCc2cccc(Oc3ccc(F)cc3)c2)C1,-7%,1.23
CCc1noc(CCNc2ncc(Cl)cc2F)n1,-7%,0.98
O=C(NC1CC1)c1csc(Nc2ccc3c(c2)OCO3)n1,-10%,1.3
COC(=O)C1CC(c2ccccc2)CN(Cc2nc(N(C)C)no2)C1 (configuration not stated),0%,-0.05
Cc1cccc(C)c1[C@H](C)NCc1nc(C2CC2)nn1C,9%,-1.06
CC(C)CN1CCN(Cc2cccc(O)c2)[C@H]2CS(=O)(=O)C[C@H]21,-15%,1.41
O=C(NCc1cccnc1N1CCCCCCC1)[C@H]1CCCNCC1,-11%,1.04
CCNc1nc(C)cc(NCCNC(=O)c2cccc(Cl)c2)n1,23%,-3.44
COCCNC(=O)[C@@]1(OCc2ccc(F)cc2)CC(OCc2ccccc2C#N)[C@@H]2OC(C)(C)O[C@@H]2C1 (some centres not stated),-19%,1.83
COC(=O)N1CCCC(NC(C)c2ccccn2)C1 (configuration not stated),-10%,1.12
S=c1scnn1CN1CCC[C@H](c2nc3ccccc3s2)C1,3%,-0.35
CC[C@H]1C(=O)NCCN1C(=O)c1cc(C)n[nH]1,33%,-1.17
CNC(=O)CCOC(=O)C1CCCCCC1,-4%,0.49
Cn1nc2n(c1=O)CCN(C(=O)c1cccc(C#N)c1)CC2,-9%,1.06
O=C(NCc1cccc(COC2CCOCC2)c1)N1CCO[C@H](C(F)F)C1,-9%,1.19
CON(C(=O)c1cccc2nn[nH]c12)C1CCCC1,6%,-0.99
COC1(c2noc(C3(c4ccccc4)CC3)n2)CCC1,-6%,0.8
COCCNCC(=O)N1CC(c2ccccc2Cl)OCC1C (configuration not stated),-12%,1.37
Cc1cnn(C2CN(Cc3ccc(-n4ccnc4)cc3)C2)c1,-5%,0.48
CC1=C(C)CN(c2ccc(C#N)cn2)CC1,-6%,0.98
CCC1CCCCN1C(=O)CN1CCCC1c1nnc2ccccn12 (configuration not stated),-8%,1.02

Compound,% Inhibition,Z score
CC1=C(c2ccccc2)[C@H]1C(=O)NCC1CCN(C(=O)c2cc(C3CC3)[nH]n2)CC1,1%,-0.19
O=C(Nc1cccc(-c2cc3cc(F)ccc3[nH]2)c1)NC1CCCC1,1%,-0.16
CC1(C(=O)O)CCN(C(=O)C2CCCOC2c2ccccc2)C1 (configuration not stated),-5%,0.73
O=C(Cn1cnnn1)Nc1ccccc1N1CCc2ccccc2C1,-39%,4.53
C[C@@H](c1ccc(-n2cncn2)cc1)n1ccnc1-c1cc2n(n1)CCCNC2,-1%,0.23
Cc1cc(NCC2(CN3CCCC3)CC2)nc(C)c1C#N,7%,-1.35
CCn1cc(S(=O)(=O)N2CC[C@@H]3COCCN(C)[C@@H]3C2)cn1,-15%,2
CCCC(=O)O[C@H]1C[C@@H](C)N(C(=O)c2ccccc2)c2ccc(C)cc21,2%,-0.23
CC(=O)N[C@H]1CN(c2cccc(C#N)n2)C[C@@H]1c1ccc(C)cc1,12%,-1.7
C[C@@H](c1nccs1)N1CCN(c2ncnc3c2ncn3C2CC2)CC1,0%,0.03
CCCCS(=O)(=O)N1CCc2cc3ccccc3nc21,0%,-0.06
Cc1ccn2c(NC(C)(C)CC(C)(C)C)c(CCc3ccccc3)nc2c1,2%,-0.28
CC(C)C(=O)c1cnccc1NC(=O)C[C@H](C)N1CCCCC1=O,4%,-0.43
CCC[C@H]1CN(C(=O)c2cccc(N3Cc4cc(C)c(C)cc4C3)c2)C[C@@H]1N,-8%,1.14
COc1ccc(N2C[C@@H](C(=O)OCC(=O)Nc3cc(C)on3)CC2=O)cc1,0%,0.02
O=C(Nc1cc(-n2ccnc2)ncn1)c1ccccn1,-1%,0.16
C[C@H](NS(=O)(=O)c1cccnc1)c1ncnn1C,-12%,1.45
Cc1cc(C)n([C@H]2CCN(Cc3ccc4c(c3)OCCO4)C2)n1,-2%,0.38
Clc1cncc(CN2CC[C@H](c3ncccn3)C2)c1,16%,-1.99
COc1cccc([C@H]2CC(=O)Nc3ccsc32)c1OCCc1ccccc1,6%,-0.76
